Among all 110,000 compounds or so, about 610 (0.55%) were called active. Inconclusive results, whose numbers are uncertain, are shown with a selection of clear calls. Calls come from the whole dose curve; as a rule, active = well fitted inhibition curve with a large enough effect; inconclusive = small, poorly fitted or top-dose-only effect; inactive = no such curve, though single readings can be large or run the other way. Potencies beside an inconclusive call are fits to weak or partial responses and may not hold up.
molecular target: Polyunsaturated fatty acid lipoxygenase ALOX15B (Homo sapiens) (UniProt O15296); assay: qHTS Assay for Inhibitors of 15-hLO-2 (15-human lipoxygenase 2); conditions: purified 15hLO-2, xylenol orange hydroperoxide absorbance; series mostly up to 57.1 µM; note: nearly all actives have a fitted effect of over 60% in size
How it was run: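 Read-out: hydroperoxide product oxidises ferrous iron, measured as xylenol orange complex via the 573-to-405 nm absorbance ratio after 30 min. Reaction: 50 nM enzyme, 15 min compound preincubation, 45 uM arachidonic acid, 90 min RT, Hepes pH 7.5 with Triton X-100.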
Potency is the fitted concentration of half-maximal effect; tags give direction and shape of the fitted curve.

Sequence of UniProt O15296 (O15296 whole entry, looked up): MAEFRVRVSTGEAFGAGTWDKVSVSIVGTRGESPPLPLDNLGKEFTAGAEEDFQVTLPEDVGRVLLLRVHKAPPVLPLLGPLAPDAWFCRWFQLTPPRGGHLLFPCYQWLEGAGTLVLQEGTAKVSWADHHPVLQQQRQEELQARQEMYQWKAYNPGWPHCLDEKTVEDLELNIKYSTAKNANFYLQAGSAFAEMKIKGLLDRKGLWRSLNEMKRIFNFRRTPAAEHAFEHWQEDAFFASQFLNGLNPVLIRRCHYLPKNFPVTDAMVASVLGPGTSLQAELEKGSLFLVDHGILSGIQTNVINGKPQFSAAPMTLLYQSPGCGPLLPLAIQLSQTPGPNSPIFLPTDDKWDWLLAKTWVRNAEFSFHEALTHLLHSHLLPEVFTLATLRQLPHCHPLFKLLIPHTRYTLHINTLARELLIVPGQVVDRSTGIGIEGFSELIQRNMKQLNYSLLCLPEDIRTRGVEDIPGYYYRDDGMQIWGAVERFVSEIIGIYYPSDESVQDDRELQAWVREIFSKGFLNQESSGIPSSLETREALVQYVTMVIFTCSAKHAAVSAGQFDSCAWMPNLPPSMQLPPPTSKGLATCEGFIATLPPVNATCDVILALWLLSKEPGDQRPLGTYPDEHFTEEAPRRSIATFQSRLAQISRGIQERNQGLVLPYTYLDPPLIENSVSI

Structure (SMILES)	Potency
O=C(O)C1C2C=CC(O2)C1C(=O)Nc1ccc(S(=O)(=O)Nc2ccccc2)cc1 (stereo not given)	inconclusive: 1.58 µM [inhibitor, full curve]
CCCc1cc(C(N)=O)c(NC(=O)C2CCCO2)s1 (stereo not given)	inactive
CCc1cc2c(=O)c(-c3nc4ccccc4[nH]3)coc2cc1OC(=O)N1CCOCC1	inconclusive: 15.8 µM [inhibitor, partial curve]
Cc1cc(/C=C2\SC(=S)NC2=O)c(C)n1C	inconclusive: 20 µM [inhibitor, partial curve]
CC(c1ccccc1)N1CCn2c(nc3cc(NC(=O)NC4CCCCC4)ccc32)C1 (stereo not given)	inactive
Cc1ccc(-n2c(C3CC3c3ccc(Cl)cc3)n[nH]c2=S)cc1 (stereo not given)	inconclusive: 6.31 µM [inhibitor, partial curve]
CC1CCN(C(=O)C(NS(=O)(=O)c2cccc3nsnc23)c2ccccc2)CC1 (stereo not given)	inconclusive: 20 µM [inhibitor, partial curve]
COCCNc1ncnc2ccc(-c3ccccc3C(F)(F)F)cc12	inconclusive: 20 µM [inhibitor, single point]
COc1cc(SC)ccc1C(=O)NC1CCCCC1	inconclusive: 12.6 µM [inhibitor, partial curve]
O=C1C=C(Nc2ccccc2O)c2ccccc2C1=O	inconclusive: 15.8 µM [inhibitor, partial curve]
CC(=O)N1CCN(c2ccc(NCc3ccc(F)cc3)cc2)CC1	active: 25.1 µM
N#Cc1c(-c2ccccc2)c(-c2ccccc2)nn(CC(=O)NNC(=O)Nc2ccc(Cl)c(Cl)c2)c1=O	inconclusive: 15.8 µM [inhibitor, partial curve]
CCC(C)C(=O)OC1C2CC3=C4CC(=O)OC(c5ccoc5)[C@]4(C)CCC3[C@@](C)(C2=O)C(CC(=O)OC)C1(C)C (stereo not given in full)	inactive
Oc1ccccc1C(=S)N1CCCCC1	inconclusive: 12.6 µM [inhibitor, partial curve]
O=C(Cc1ccccc1)NC(=S)Nc1cc(C(F)(F)F)ccc1Cl	inconclusive: 10 µM [inhibitor, partial curve, poor fit]
CCCCC1(C)OC(=O)C(=Cc2ccc(N(C)C)cc2)C(=O)O1 (stereo not given)	inconclusive: 0.126 µM [inhibitor, full curve, poor fit]
CSC(N)=NCCC[C@@H](N)C(=O)O	inactive
Cc1nnc(NC(=O)CSc2nnc(Cc3cccn3C)n2C)s1	inactive
S=c1[nH]nc(COc2ccccc2)n1C1CCCCC1	inactive
CCCc1nc2sc3ccccc3c(=O)c2c(=O)n1Cc1ccco1	inconclusive: 25.1 µM [inhibitor, single point]

Reference: PubChem BioAssay AID881 (National Center for Advancing Translational Sciences (NCATS), 2007)
